Assay results: US20060194762A1, “Composition comprising an epothilone and methods for producing a composition comprising an epothilone” (priority 2004, published 2006)

Tested on: Patients with histologically confirmed advanced solid tumors
Settings: dose levels up to 29 mg/m^2

C=CC[C@H]1C(=O)C(C)(C)[C@@H](O)CC(=O)O[C@H](c2ccc3sc(C)nc3c2)C[C@@H]2O[C@]2(C)CCC[C@H](C)[C@@H]1O [Epothilone*, (1S,3S,7S,10R,11S,12S,16R)-7,11-dihydroxy-3-(2-methyl-benzothiazol-5-yl)-10-(prop-2-en-1-yl)-8,8,12,16-tetramethyl-4,17-dioxabicyclo[14.1.0]heptadecane-5,9-dione]
Grade 3-4 non-hematological toxicities other than the DLTs: No Grade 3-4 non-hematological toxicities were reported
Hematologic toxicities, maximum CTC Grade (infrequent): ≤ 2 CTC Grade
Most common side effect: peripheral sensory neuropathy, mostly of Grade 1-2
